# PubChem BioAssay AID686970 (National Center for Advancing Translational Sciences (NCATS), 2013)
# In all, about 360,000 compounds went through this assay and about 6,000 (1.7%) were called active. Inconclusive results, whose numbers are uncertain, are shown with a selection of clear calls. The call rests on the fitted dose curve; in most records, active means well fitted cell-killing curve with a large enough effect; inconclusive means small, poorly fitted or top-dose-only effect, or effect the other way; inactive means flat fitted curve, though single readings scatter. Potencies of inconclusive entries are left out as doubtful fits.
# Test: qHTS for induction of synthetic lethality in tumor cells producing 2HG: qHTS for the HT-1080-NT fibrosarcoma cell line;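 further: NT is the 2HG producing partner of a matched IDH1 knockdown line; nearly all actives have a fitted effect of over 55% in size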;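 on activity, negative = less viability: 0% = DMSO-treated cells and -100% = media-only wells without cells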
# Details: HT-1080-NT fibrosarcoma viability, CellTiter-Glo ATP luminescence, 48 h; activity, negative = less viability: at 46.1 µM (top of the series) unless noted
# How it was run: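 Compounds were tested in concentration-response format on HT-1080-NT cells for 48 hours at 37 degrees C. Cell viability came from CellTiter-Glo luminescence; curves were classified by r2, response magnitude and activity.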
# Potency means the concentration at half of the fitted maximal effect; tags describe the fitted curve by direction and shape.
SMILES,Potency,"activity, negative = less viability"
CCCCCCCCCCS(=O)(=O)N/N=C/c1ccccc1OC,"inconclusive [cytotoxic, single point]",–
N/C(=N\OC(=O)N1CCOCC1)c1ccccc1,"inconclusive [cytotoxic, single point]",–
Cc1nc(N2CCN(Cc3ccc4c(c3)OCO4)CC2)c2oc3ccccc3c2n1,"inconclusive [cytotoxic, single point]",–
Cc1cc(NCCC(C)C)n2nc(C)c(-c3ccccc3)c2n1,"inconclusive [cytotoxic, single point]",–
CC(c1ccccc1)C1CC(=O)N(Cc2ccco2)C1=O (stereo not drawn),–,inactive: 6.26%
O=C(NNc1ccccc1)c1ccc(Cl)c(Cl)c1,"inconclusive [cytotoxic, full curve]",–
Cc1cc(=O)oc2ccc(OCc3ccccc3)cc12,–,inactive: -15.4%
COCCNC(=O)C(=O)Nc1ccc2c(c1)N(S(=O)(=O)c1cccs1)CCC2,"inconclusive [cytotoxic, partial curve]",–
CCOC(=O)C1=C(c2ccccc2)NC(SCC(=O)Nc2ccc(C)cc2)=C(C#N)C1c1ccco1 (stereo not drawn),"inconclusive [cytotoxic, single point]",–
CCCCNC(=O)C1(C)CCCCN1C(=O)c1ccc2c(c1)C(C)(C)CCC2(C)C (stereo not drawn),"inconclusive [cytotoxic, single point]",–
COC(=O)C(NC(=O)c1ccccc1C(=O)O)c1ccc2ccccc2c1 (stereo not drawn),–,inactive: 2.13%
Cc1ccc(C(NC(=O)N2CCN(C)CC2)C(Cl)Cl)cc1F (stereo not drawn),"inconclusive [rising, single point]",–
CC(C)C1C(=O)N(Cc2cn(CCC3OCCO3)nn2)CCS(=O)(=O)N1Cc1ccc(-c2ccc(F)cc2Cl)cc1 (stereo not drawn),"inconclusive [cytotoxic, single point]",–
Cc1nnc(SCc2cc(=O)[nH]c(/N=C(\N)Nc3ccccc3)n2)s1,"inconclusive [cytotoxic, single point]",–
COCCNC(=O)c1cc2c(c(-c3cccc(C#Cc4ccc(OC)c(OC)c4)c3)n1)[C@@H](CCO)N(S(=O)C(C)(C)C)C2 (stereo partly drawn),"inconclusive [cytotoxic, single point]",–
O=Nc1c(-c2c(O)[nH]c3cc(Br)ccc23)[nH]c2ccccc12,active: 5.17 µM,–
COc1ccc(NC(=O)c2sc3nc(C)cc(C)c3c2N)cc1,–,inactive: 15.2%
COc1ccc(-c2cc(C3CCN(Cc4cccc(C(F)(F)F)c4)CC3)[nH]n2)cc1,active: 16.4 µM,–
Cc1ccc(CNc2ncnc3cc(Cl)ccc23)cc1,"inconclusive [cytotoxic, single point]",–
Cn1c(CCN2CCCC2)nc2cc(NS(=O)(=O)c3ccc(F)cc3)ccc21,–,inactive: -24.2%
Cc1noc(C)c1CSc1nnc(C)c(=O)[nH]1,–,inactive: 15.7%
CCn1nc(NC(=O)CC(C)C)c2cc3ccc(C)cc3nc21,–,inactive: -1.63%

SMILES,Potency,"activity, negative = less viability"
COC(=O)c1ccc(C(=O)NC2CCCc3c2cnn3-c2cc(F)cc(F)c2)nc1 (stereo not drawn),"inconclusive [cytotoxic, single point]",–
OC(c1ccccc1)(c1nc(-c2cccc(C(F)(F)F)c2)cs1)C(F)(F)F (stereo not drawn),active: 23.1 µM,–
CN[C@H]1C[C@H]2c3cc(-c4ccccc4)ccc3CCN2C(=O)[C@H]1[C@H](C)O,"inconclusive [cytotoxic, single point]",–
C[C@@]12C(=O)N(c3cccc(F)c3)C(=O)N1[C@H](c1ccc(Cl)cc1)[C@@H]1C(=O)N(C3CCCCC3)C(=O)[C@@H]12,"inconclusive [cytotoxic, single point]",–
O=C1CN(C(=O)Cn2ncc(Cl)c(Cl)c2=O)c2ccccc2N1,active: 4.61 µM,–
COc1ccc(CC(N)c2csc(NC(=O)Nc3ccccc3-c3ccccc3)n2)cc1 (stereo not drawn),active: 14.6 µM,–
O=C(CC[C@H]1O[C@@H](n2ccc(=O)[nH]c2=O)[C@H](O)[C@@H]1O)N[C@@H](Cc1ccccc1)C(=O)NCC1CCCCC1,–,inactive: 28.8%
CC1=C(c2ccccc2)C(O)(c2ccccc2)C(C)C1=O (stereo not drawn),"inconclusive [cytotoxic, partial curve]",–
O=C(NC(=S)Nc1cccc2[nH]ncc12)c1ccccc1,"inconclusive [cytotoxic, partial curve]",–
Cc1ccc(/C=N/NC(=O)c2ccc3c(c2)OCCO3)s1,"inconclusive [cytotoxic, partial curve]",–
CCOc1ccccc1OCC(=O)N/N=C(\C)Cc1ccc(OC)cc1,"inconclusive [cytotoxic, single point]",–
Cc1c(NC(=S)SCc2ccccc2)c(=O)n(-c2ccccc2)n1C,–,inactive: -7.74%
Cc1[nH]n(-c2ccc([N+](=O)[O-])cc2)c(=O)c1C=NCCN1CCN(C(=O)c2cccc(F)c2)CC1,active: 18.4 µM,–
O=C(NCc1cccc(C(F)(F)F)c1)C1CC(c2c(Cl)cccc2Cl)=NO1 (stereo not drawn),"inconclusive [cytotoxic, single point]",–
Cc1cc2nc(-c3ccc(F)cc3)c(CC(C)(C)C)n2c(C)c1Br,"inconclusive [cytotoxic, single point]",–
CCN(CC)CCCNc1nc(CN2CCOCC2)nc2sc3c(c12)CCC3,"inconclusive [cytotoxic, single point]",–
CC(=O)C1=C(C)NC(SCC(=O)c2cc(Cl)ccc2Cl)=C(C#N)C1c1ccco1 (stereo not drawn),"inconclusive [cytotoxic, partial curve]",–
COCCCNC(=O)CSc1c2c(nc3ccc(Cl)cc13)CCCC2,"inconclusive [cytotoxic, single point]",–
COc1ccc(O)cc1CN1CCN(c2ncc(Cc3ccccc3)cn2)CC1,"inconclusive [cytotoxic, single point]",–
CCC(=O)N1CCc2cc(Br)cc(S(=O)(=O)N(C)c3ccc(OC)cc3OC)c21,"inconclusive [cytotoxic, single point]",–
CNC(=O)c1nnsc1S(=O)c1ccc(Cl)cc1 (stereo not drawn),active: 14.6 µM,–
